Reference: the supplement of paper PMC10338343
± gives the standard deviation. This is a selection; strong and weak results do not stand in their true shares.

Tested on: MIWI (PIWIL1) piRISC loaded with L1MC piRNA (30 nt)
Experiment: pre-steady-state target cleavage rate (min^-1); MIWI and MILI are mouse PIWI proteins and EfPiwi is from a freshwater sponge; tags in brackets are library labels; higher = faster piRNA-guided slicing of the target
Settings: guide: L1MC piRNA 5'p-UAACUAAAUACUAUGCAAGCUGUAGGUCCU
Method in brief: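 Cleave-'n-Seq reactions paired 0.1 nM transcribed, DNA-blocked target RNA library with 1 nM active affinity-purified piRISC holding one synthetic guide, plus or minus 500 nM GTSF1 partner protein, in HEPES–potassium acetate buffer at 33 °C for 0–8 or 0–960 min. After sequencing of uncleaved targets and normalisation to depth and weakly complementary targets, the pre-steady-state cleavage rate was taken from a burst-and-steady-state fit. Three trials were pooled, and k3 was capped at 0.0001 min^-1.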

[1] = auxiliary factor: 500 nM mouse GTSF1
[2] = auxiliary factor: none (no GTSF1)

Sequence | pre-steady-state target cleavage rate [1] | pre-steady-state target cleavage rate [2]
UCGACCUACAGGAUGCAUAGUAUUUAGUAA | 0.952 ± 0.077 | 0.0079 ± 0.0021
AGGACCUUCAGCUUGCAUAGAAUUUAGUUA | 0.428 ± 0.033 | 0.0276 ± 0.0061
UCCUGGAACAGCUUGGAUAGUAUUUAGAUA | 0.34 ± 0.042 | 0.0248 ± 0.0067
UCCUGGAUCAGCUUGCAUAGUAUUAGUUA | 0.00982 ± 0.005 | 0.00355 ± 0.003
AGCACCAACAGCUUGCAUAGUAUUUAGUUA | 1.03 ± 0.058 | 0.0664 ± 0.011
UCGCACCUACAGCUUGCAUAGUAUUUAGUUA | 1.06 ± 0.13 | 0.0648 ± 0.015
UGGACCUACAGCUUGCAUAGUAUUUACAAA | 0.277 ± 0.035 | 0.00701 ± 0.0024
UGGAGGUACAGCUUGCAUAGUAUUUUCAAA | 0.0674 ± 0.014 | 0.00316 ± 0.0017
UCCUGGAUCAGCUUGCAUAGUAUUUAGAUUA | 0.16 ± 0.02 | 0.017 ± 0.0039
UGGACCUAGACCUUGCAUAGUAUUUAGUUA | 0.661 ± 0.046 | 0.0184 ± 0.0043
AGGAGGAACAGCUUGCAUAGUAUUUAGUAA | 0.874 ± 0.092 | 0.0441 ± 0.0083
ACGACCUACAGCUUGCAUACUAUUUAGUUA | 0.453 ± 0.022 | 0.04 ± 0.0082
UGGACCUACAGCUAGCUUAGUAUUUAGUUA | 1.24 ± 0.085 | 0.0122 ± 0.0034
UCGACCUAGUCCUUGCAUAGUAUUUACAAA | 0.259 ± 0.049 | 0.00217 ± 0.0021
UCCACCUACUGCUUGCUUAGUAUUUAGUUA | 0.816 ± 0.029 | 0.0276 ± 0.0058
UCCUGGAUGAGCUUGCAUACUAUUUAGAUA | 0.0538 ± 0.017 | 0.00863 ± 0.0041
UCCUGGAAGAGCUUGCAUUGUAUUUAGUUA | 0.6 ± 0.041 | 0.0219 ± 0.007
UCCUGGAUGAGCUUGCUUAGUAUUUACUUA | 0.254 ± 0.042 | 0.0202 ± 0.005
UCCUGGAUGUGCUUGCAUAGUAUUUAGCUA | 0.0174 ± 0.0073 | 0.00598 ± 0.0029
UCCUGGAUGUGCAUGCAUAGUAUUAAGUUA | 0.0132 ± 0.0032 | 0.00357 ± 0.0033

Sequence | pre-steady-state target cleavage rate [1] | pre-steady-state target cleavage rate [2]
UCCACCUUCAGCUUGCAUAGUAUUUACUUA | 0.345 ± 0.044 | 0.0207 ± 0.0033
UCCUCCUACAGCUUGCAUAGUAUUUACAUA | 0.33 ± 0.042 | 0.0102 ± 0.0038
UGGACCUAGAGCUUGCAUAGUAUUUUCAAA | 0.16 ± 0.026 | 0.00346 ± 0.0032
UCCUCCUACAGCUUGCAUAGAAUUUAGUAA | 0.429 ± 0.057 | 0.0089 ± 0.003
UCCUGGAUGAGCUUGCAUAGUAUUGUAGUUA | 0.108 ± 0.019 | 0.0197 ± 0.0052
UCGACCUACAGCUUGCUUAGUAUUUUGUUA | 0.977 ± 0.06 | 0.0159 ± 0.0041
UCCUGGUACAGCUUGCAUAGUGAUUUAGUUA | 0.0476 ± 0.011 | 0.00639 ± 0.0029
UCCUGGAUGAGCUUGGUUAGUAUUUAGUUA | 0.299 ± 0.023 | 0.00784 ± 0.0026
UGGACCAACAGCUUGCAUUGUAUUUAGUUA | 0.967 ± 0.037 | 0.0357 ± 0.0087
UCCACCUACAGCUUGCAUACUAUUUAGUUA | 0.373 ± 0.031 | 0.026 ± 0.0043
UCGACCAUGAGCUUGCAUAGUAUUUACAAA | 0.223 ± 0.037 | 0.00404 ± 0.0019
AGGACCUACAGCUCUGCAUAGUAUUUAGUUA | 1.56 ± 0.1 | 0.0543 ± 0.014
UCCACCUACAGCGUGCAUAGUAUUUAGUUA | 1.06 ± 0.04 | 0.0325 ± 0.0056
UCCACCUACAGCUUGCAUAGUAUUCUAGUUA | 0.633 ± 0.067 | 0.0214 ± 0.0052
UGGUCCUACAGCUUGCAUACUAUUUAGUUA | 0.366 ± 0.021 | 0.0325 ± 0.0053
UCCUCCAUGAGCUUGCAUAGUAUUUAGAAA | 0.155 ± 0.024 | 0.00465 ± 0.0018
UCCUGCUACAGCUGUGCAUAGUAUUUAGUUA | 0.751 ± 0.061 | 0.0113 ± 0.0029
UCCUCCUACAGCUUGCAUAGUAAUUAGUUA | 0.789 ± 0.032 | 0.0211 ± 0.0055
UCCUGGUACAGCUUGGAUAGUAUUUUGUUA | 0.359 ± 0.066 | 0.0236 ± 0.0073
UCCACCUUCACCUUGCAUAGUAUUUAGUUA | 0.741 ± 0.057 | 0.049 ± 0.0088

Sequence | pre-steady-state target cleavage rate [1] | pre-steady-state target cleavage rate [2]
UCCACCUACAGCUGUGCAUAGUAUUUAGUUA | 1.02 ± 0.044 | 0.0243 ± 0.0047
AGGACCUACAGCUUGCAUAGAUUUUAGUUA | 0.19 ± 0.022 | 0.0089 ± 0.0041
UCGACCUACAGGUUGGAUAGUAUUUAGUUA | 1.16 ± 0.11 | 0.0308 ± 0.0056
UCGUCCUACAGCUUCCAUAGUAUUUAGUUA | 0.111 ± 0.027 | 0.0031 ± 0.0013
ACGACCUACAGCUUGCAUAGUAUUUAGUUA | 1.56 ± 0.064 | 0.0997 ± 0.017
UCGACCUACAGGUUGCAUAGUAUUUAGUAA | 1.09 ± 0.06 | 0.0228 ± 0.005
AGCUCCUACAGCUUGCAUAGUAUUUAGUUA | 1.37 ± 0.053 | 0.0847 ± 0.013
AGGACCUACACCAUGCAUAGUAUUUAGUUA | 0.846 ± 0.039 | 0.0249 ± 0.0046
UCCUGGUACAGCUUGCAUAGUAAAAAGUUA | 0.191 ± 0.041 | 0.00294 ± 0.0022
AGGACCUACAGCUUGCAUAGUACUUUAGUUA | 0.774 ± 0.062 | 0.0376 ± 0.011
UCCUGCUACAGCUUGCUUAGUAUUUUGUUA | 0.641 ± 0.043 | 0.00925 ± 0.0021
UCCUGGUAGUCCUUGCAUAGUAUUUAGUAA | 0.0379 ± 0.0095 | 0.0044 ± 0.0023
UCGACCUACAGCUUGCAUAGUAUUUAGUAUA | 0.98 ± 0.048 | 0.0194 ± 0.0059
UCCUGGAACAGCUUGCAUAGUAUUUAUUUA | 0.305 ± 0.034 | 0.0214 ± 0.0085
AGCACCUACAGCUUGCAUAGUUUUUAGUUA | 0.591 ± 0.09 | 0.171 ± 0.054
UCCUGGAACUCCUUGCAUAGUAUUUAGUAA | 0.183 ± 0.022 | 0.00322 ± 0.0032
UCCUGGAUGUCCUUGCAUAGUAUUUAGUUA [g2:g19:cont:t1A] | 0.179 ± 0.021 | 0.0112 ± 0.0025
UGGACCUUCAGCUUGCAAAGUAUUUAGUUA | 1.34 ± 0.073 | 0.0368 ± 0.0084
UCCUGGUACAGGUUGCAAAGUAUUUAGUUA | 0.71 ± 0.038 | 0.018 ± 0.0044
UCCACCUACAGCUUGCGUAGUAUUUAGUUA | 1.26 ± 0.049 | 0.0423 ± 0.0094
